Measurements from the supplement of paper PMC12217912.
The list shows a part of the results. Sequences were assembled here from the parent chain. Inactive controls read about 0.05.

B1: TEV protease; numbered along this chain (parent)
chain: MGESLFKGPRDYNPISSSICHLTNESDGHTTSLYGIGFGPFIITNKHLFRRNNGTLVVQSLHGVFKVKDTTTLQQHLVDGRDMIIIRMPKDFPPFPQKLKFREPQREERICLVTTNFQTKSMSSMVSDTSCTFPSGDGIFWKHWIQTKDGQCGSPLVSTRDGFIVGIHSASNFTNTNNYFTSVPKNFMELLTNQEAQQWVSGWRLNADSVLWGGHKVFMVKPEEPFQPVKEATQL

Variants of: B1
Experiment: raw area under fraction-flipped curve 0-4 h after induction (AUC4h, not background-subtracted), DNA-recorder readout of cleavage of the substrate (dimensionless); higher = more cleavage of the substrate by the protease variant
Settings: temperature: 34 °C; time window: 0-4 h after rhamnose induction
Description: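 In vivo DNA recorder in E. coli TOP10(DE3) ΔrhaA at 34 °C. Each TEVp single-site mutant (parent TEVp 0) is paired with a single-site variant of the 7-mer TEVs (canonical ENLYFQ|S). The substrate sits between flexible linkers in a Bxb1-sfGFP-TEVs-SsrA fusion, so cleavage stabilises Bxb1 and speeds flipping of a recombination array, read by NGS. The value is the raw area under the fraction-flipped curve over 0-4 h after rhamnose induction (AUC4h), with ≥20 reads per time point. It is not background-subtracted; inactive controls average about 0.047.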
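Further: Bxb1 expression induced with 0.2% (w/v) L-rhamnose at OD600 near 0.5, cultures sampled hourly, flipped fraction per protease–substrate barcode pair counted by paired-end Illumina sequencing.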

MGESLFKGPRDYNPISSSICHLTNESDGHTTSLYGIGFGPFIITNKHLFRRNNGTLVVQSLHGVFKVKDTTTLQQHLVDGRDMIIIRMPKDFPPFPQKLKFREPQREERICLVTTNFQTKSMSSSVSDTSCTFPSGDGIFWKHWIQTKDGQCGSPLVSTRDGFIVGIHSASNFTNTNNYFTSVPKNFMELLTNQEAQQWVSGWRLNADSVLWGGHKVFMVKPEEPFQPVKEATQL [M125S]
area with substrate ECLYFQS: 0.0958
area with substrate EFLYFQS: 0.104
area with substrate EHLYFQS: 0.13
area with substrate EILYFQS: 0.126
area with substrate EKLYFQS: 0.0862
area with substrate EMLYFQS: 0.0047
area with substrate ERLYFQS: 0.0965
area with substrate ESLYFQS: 0.103
area with substrate EVLYFQS: 0.0808
area with substrate EYLYFQS: 0.115

MGESLFKGPRDYNPISSSICHLTNESDGHTTSLYGIGFGPFIITNKHLFRRNNGTLVVQSLHGVFKVKDTTTLQQHLVDGRDMIIIRMPKDFPPFPQKLKFREPQREERICLVTTNFQTKSMSSMESDTSCTFPSGDGIFWKHWIQTKDGQCGSPLVSTRDGFIVGIHSASNFTNTNNYFTSVPKNFMELLTNQEAQQWVSGWRLNADSVLWGGHKVFMVKPEEPFQPVKEATQL [V126E]
area with substrate ECLYFQS: 0.105
area with substrate EDLYFQS: 0.101
area with substrate ELLYFQS: 0.0578
area with substrate EMLYFQS: 0.0999
area with substrate EPLYFQS: 0.0548
area with substrate ERLYFQS: 0.0926
area with substrate ESLYFQS: 0.0777
area with substrate EWLYFQS: 0.0958

MGESLFKGPRDYNPISSSICHLTNESDGHTTSLYGIGFGPFIITNKHLFRRNNGTLVVQSLHGVFKVKDTTTLQQHLVDGRDMIIIRMPKDFPPFPQKLKFREPQREERICLVTTNFQTKSMSSMVMDTSCTFPSGDGIFWKHWIQTKDGQCGSPLVSTRDGFIVGIHSASNFTNTNNYFTSVPKNFMELLTNQEAQQWVSGWRLNADSVLWGGHKVFMVKPEEPFQPVKEATQL [S127M]
area with substrate ECLYFQS: 0.123
area with substrate EELYFQS: 0.142
area with substrate EGLYFQS: 0.113
area with substrate EKLYFQS: 0.0996
area with substrate ELLYFQS: 0.086
area with substrate EPLYFQS: 0.137
area with substrate ERLYFQS: 0.117
area with substrate ESLYFQS: 0.12
area with substrate EVLYFQS: 0.0989
area with substrate EWLYFQS: 0.0935

MGESLFKGPRDYNPISSSICHLTNESDGHTTSLYGIGFGPFIITNKHLFRRNNGTLVVQSLHGVFKVKDTTTLQQHLVDGRDMIIIRMPKDFPPFPQKLKFREPQREERICLVTTNFQTKSMSSMVSVTSCTFPSGDGIFWKHWIQTKDGQCGSPLVSTRDGFIVGIHSASNFTNTNNYFTSVPKNFMELLTNQEAQQWVSGWRLNADSVLWGGHKVFMVKPEEPFQPVKEATQL [D128V]
area with substrate ECLYFQS: 0.14
area with substrate EGLYFQS: 0.142
area with substrate EHLYFQS: 0.151
area with substrate EILYFQS: 0.114
area with substrate EKLYFQS: 0.139
area with substrate EPLYFQS: 0.0709
area with substrate EQLYFQS: 0.138
area with substrate ESLYFQS: 0.123
area with substrate ETLYFQS: 0.124

MGESLFKGPRDYNPISSSICHLTNESDGHTTSLYGIGFGPFIITNKHLFRRNNGTLVVQSLHGVFKVKDTTTLQQHLVDGRDMIIIRMPKDFPPFPQKLKFREPQREERICLVTTNFQTKSMSSMVSDCSCTFPSGDGIFWKHWIQTKDGQCGSPLVSTRDGFIVGIHSASNFTNTNNYFTSVPKNFMELLTNQEAQQWVSGWRLNADSVLWGGHKVFMVKPEEPFQPVKEATQL [T129C]
area with substrate ECLYFQS: 0.0914
area with substrate EELYFQS: 0.118
area with substrate EGLYFQS: 0.0819
area with substrate EILYFQS: 0.112
area with substrate EKLYFQS: 0.0787
area with substrate ELLYFQS: 0.102
area with substrate EMLYFQS: 0.144
area with substrate EPLYFQS: 0.142
area with substrate EQLYFQS: 0.117
area with substrate ESLYFQS: 0.0834

MGESLFKGPRDYNPISSSICHLTNESDGHTTSLYGIGFGPFIITNKHLFRRNNGTLVVQSLHGVFKVKDTTTLQQHLVDGRDMIIIRMPKDFPPFPQKLKFREPQREERICLVTTNFQTKSMSSMVSDFSCTFPSGDGIFWKHWIQTKDGQCGSPLVSTRDGFIVGIHSASNFTNTNNYFTSVPKNFMELLTNQEAQQWVSGWRLNADSVLWGGHKVFMVKPEEPFQPVKEATQL [T129F]
area with substrate ECLYFQS: 0.0744
area with substrate EGLYFQS: 0.0916
area with substrate EILYFQS: 0.0922
area with substrate ELLYFQS: 0.0925
area with substrate EMLYFQS: 0.107
area with substrate EQLYFQS: 0.0992
area with substrate ERLYFQS: 0.0802
area with substrate EWLYFQS: 0.0559

MGESLFKGPRDYNPISSSICHLTNESDGHTTSLYGIGFGPFIITNKHLFRRNNGTLVVQSLHGVFKVKDTTTLQQHLVDGRDMIIIRMPKDFPPFPQKLKFREPQREERICLVTTNFQTKSMSSMVSDVSCTFPSGDGIFWKHWIQTKDGQCGSPLVSTRDGFIVGIHSASNFTNTNNYFTSVPKNFMELLTNQEAQQWVSGWRLNADSVLWGGHKVFMVKPEEPFQPVKEATQL [T129V]
area with substrate ECLYFQS: 0.076
area with substrate EDLYFQS: 0.0825
area with substrate EHLYFQS: 0.11
area with substrate EILYFQS: 0.0696
area with substrate ELLYFQS: 0.0865
area with substrate EMLYFQS: 0.116
area with substrate EPLYFQS: 0.0869
area with substrate ERLYFQS: 0.0684
area with substrate ESLYFQS: 0.0921
area with substrate ETLYFQS: 0.0936
area with substrate EVLYFQS: 0.0983
area with substrate EWLYFQS: 0.0877

MGESLFKGPRDYNPISSSICHLTNESDGHTTSLYGIGFGPFIITNKHLFRRNNGTLVVQSLHGVFKVKDTTTLQQHLVDGRDMIIIRMPKDFPPFPQKLKFREPQREERICLVTTNFQTKSMSSMVSDTDCTFPSGDGIFWKHWIQTKDGQCGSPLVSTRDGFIVGIHSASNFTNTNNYFTSVPKNFMELLTNQEAQQWVSGWRLNADSVLWGGHKVFMVKPEEPFQPVKEATQL [S130D]
area with substrate ECLYFQS: 0.0906
area with substrate EGLYFQS: 0.0713
area with substrate EHLYFQS: 0.0769
area with substrate EKLYFQS: 0.0988
area with substrate EMLYFQS: 0.124
area with substrate EPLYFQS: 0.118
area with substrate EQLYFQS: 0.128
area with substrate ERLYFQS: 0.0728
area with substrate EVLYFQS: 0.0877
area with substrate EWLYFQS: 0.0845
area with substrate EYLYFQS: 0.0914

MGESLFKGPRDYNPISSSICHLTNESDGHTTSLYGIGFGPFIITNKHLFRRNNGTLVVQSLHGVFKVKDTTTLQQHLVDGRDMIIIRMPKDFPPFPQKLKFREPQREERICLVTTNFQTKSMSSMVSDTICTFPSGDGIFWKHWIQTKDGQCGSPLVSTRDGFIVGIHSASNFTNTNNYFTSVPKNFMELLTNQEAQQWVSGWRLNADSVLWGGHKVFMVKPEEPFQPVKEATQL [S130I]
area with substrate ECLYFQS: 0.103
area with substrate EELYFQS: 0.0978
area with substrate EILYFQS: 0.0968
area with substrate ELLYFQS: 0.0932
area with substrate ESLYFQS: 0.0925
area with substrate EVLYFQS: 0.111

MGESLFKGPRDYNPISSSICHLTNESDGHTTSLYGIGFGPFIITNKHLFRRNNGTLVVQSLHGVFKVKDTTTLQQHLVDGRDMIIIRMPKDFPPFPQKLKFREPQREERICLVTTNFQTKSMSSMVSDTPCTFPSGDGIFWKHWIQTKDGQCGSPLVSTRDGFIVGIHSASNFTNTNNYFTSVPKNFMELLTNQEAQQWVSGWRLNADSVLWGGHKVFMVKPEEPFQPVKEATQL [S130P]
area with substrate ECLYFQS: 0.0536
area with substrate EELYFQS: 0.0714
area with substrate EFLYFQS: 0.0811
area with substrate EHLYFQS: 0.0792
area with substrate EILYFQS: 0.0328
area with substrate EKLYFQS: 0.0504
area with substrate ELLYFQS: 0.0519
area with substrate EMLYFQS: 0.0568
area with substrate ESLYFQS: 0.0607
area with substrate EVLYFQS: 0.0659
area with substrate EYLYFQS: 0.0368

MGESLFKGPRDYNPISSSICHLTNESDGHTTSLYGIGFGPFIITNKHLFRRNNGTLVVQSLHGVFKVKDTTTLQQHLVDGRDMIIIRMPKDFPPFPQKLKFREPQREERICLVTTNFQTKSMSSMVSDTWCTFPSGDGIFWKHWIQTKDGQCGSPLVSTRDGFIVGIHSASNFTNTNNYFTSVPKNFMELLTNQEAQQWVSGWRLNADSVLWGGHKVFMVKPEEPFQPVKEATQL [S130W]
area with substrate ECLYFQS: 0.0573
area with substrate EDLYFQS: 0.0811
area with substrate EELYFQS: 0.0917
area with substrate EGLYFQS: 0.0713
area with substrate EHLYFQS: 0.0635
area with substrate EKLYFQS: 0.0676
area with substrate EMLYFQS: 0.139
area with substrate EPLYFQS: 0.0799
area with substrate ERLYFQS: 0.0997
area with substrate ESLYFQS: 0.0807
area with substrate ETLYFQS: 0.0725
area with substrate EVLYFQS: 0.0804
area with substrate EYLYFQS: 0.0731
